The source gives many values for each of these; only a part stands here.
Assays:
[1] = Biodistribution of 99mTc complexes in mice; format: in vivo, Balb/c mice
From the text: A series of derivatives incorporating carboxyl and phenolate donor groups (1-6) were synthesised by literature method and their radiolabelling characteristic and biological behaviour evaluated. Initial work involved an investigation of radiochemical properties of the ^99m Tc complexes of the ligands and their biodistribution in rats and mice (see Tables 1-6 and 8-12).
A typical method of radiolabelling of the chelator was achieved by dissolving the chelator in a basic solution of saline. The pH was then adjusted to approx. 6 with HCl. Excess stannous chloride was added to the resultant solution followed by one equivalent volume of sodium ^99m TcO4 (10-50 mCi/ml). Final concentration of the chelator was approx. 1 mg/ml. The efficacy of labelling was determined by ITLC-SG. For each product only one main radiochemical species was observed. Each complex was diluted to 15 μCi/100 μl with saline. […] (See FIGS. 1A and 1B).

[2] = Biodistribution of 67Ga complexes in mice; format: in vivo, balb/c mice
Method in brief: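 Ligand labelled with 67Ga citrate at pH 12, 40 °C for 40 min, diluted in saline and filter-sterilised. Balb/c mice given ~3.7×10^5 Bq intravenously via tail vein; five animals sacrificed at each of six time points.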

biodistribution GIT ([1]; 1 min): 3.89 % Injected dose
biodistribution bladder ([1]; 1 min): 0.09 % Injected dose
biodistribution blood ([1]; 1 min): 26.59 % Injected dose
biodistribution heart ([1]; 1 min): 0.61 % Injected dose
biodistribution lungs ([1]; 1 min): 1.64 % Injected dose
biodistribution stomach ([1]; 1 min): 0.65 % Injected dose
biodistribution tail ([1]; 1 min): 2.65 % Injected dose
biodistribution GIT ([1]; 3 min): 3.22 % Injected dose
biodistribution bladder ([1]; 3 min): 1.16 % Injected dose
biodistribution blood ([1]; 3 min): 14.84 % Injected dose
biodistribution bone ([1]; 3 min): 4 % Injected dose
biodistribution heart ([1]; 3 min): 0.43 % Injected dose
biodistribution lungs ([1]; 3 min): 1.65 % Injected dose
biodistribution stomach ([1]; 3 min): 0.56 % Injected dose
biodistribution tail ([1]; 3 min): 4.28 % Injected dose
biodistribution GIT ([1]; 5 min): 2.42 % Injected dose
biodistribution bladder ([1]; 5 min): 2.15 % Injected dose
biodistribution blood ([1]; 5 min): 10.06 % Injected dose
biodistribution bone ([1]; 5 min): 2.79 % Injected dose
biodistribution heart ([1]; 5 min): 0.26 % Injected dose
biodistribution lungs ([1]; 5 min): 1.28 % Injected dose
biodistribution stomach ([1]; 5 min): 0.4 % Injected dose
biodistribution tail ([1]; 5 min): 11.55 % Injected dose
biodistribution GIT ([1]; 10 min): 3.94 % Injected dose
biodistribution bladder ([1]; 10 min): 1.04 % Injected dose
biodistribution blood ([1]; 10 min): 12.87 % Injected dose
biodistribution bone ([1]; 10 min): 2.98 % Injected dose
biodistribution heart ([1]; 10 min): 0.23 % Injected dose
biodistribution lungs ([1]; 10 min): 1.1 % Injected dose
biodistribution stomach ([1]; 10 min): 0.63 % Injected dose
biodistribution tail ([1]; 10 min): 6.98 % Injected dose
biodistribution GIT ([1]; 30 min): 4.61 % Injected dose
biodistribution bladder ([1]; 30 min): 0.83 % Injected dose
biodistribution blood ([1]; 30 min): 3.98 % Injected dose
biodistribution bone ([1]; 30 min): 1.86 % Injected dose
biodistribution heart ([1]; 30 min): 0.12 % Injected dose
biodistribution lungs ([1]; 30 min): 0.46 % Injected dose
biodistribution stomach ([1]; 30 min): 0.49 % Injected dose
biodistribution tail ([1]; 30 min): 2.01 % Injected dose
biodistribution bladder ([2]; 1 min): 0.48 % ID
biodistribution blood ([2]; 1 min): 17.48 % ID
biodistribution bone ([2]; 1 min): 4.85 % ID
biodistribution caecum ([2]; 1 min): 0.36 % ID
biodistribution colon ([2]; 1 min): 0.59 % ID
biodistribution duodenum ([2]; 1 min): 0.12 % ID
biodistribution heart ([2]; 1 min): 0.35 % ID
biodistribution ileum ([2]; 1 min): 0.32 % ID
biodistribution jejunum ([2]; 1 min): 0.81 % ID
biodistribution kidney ([2]; 1 min): 8.39 % ID
biodistribution liver ([2]; 1 min): 3.08 % ID
biodistribution lungs ([2]; 1 min): 1.15 % ID
biodistribution muscle ([2]; 1 min): 23.50 % ID
biodistribution pancreas ([2]; 1 min): 0.36 % ID
biodistribution salivary gl ([2]; 1 min): 0.29 % ID
biodistribution skin ([2]; 1 min): 20.79 % ID
biodistribution spleen ([2]; 1 min): 0.18 % ID
biodistribution stomach GL ([2]; 1 min): 0.27 % ID
biodistribution stomach SQ ([2]; 1 min): 0.08 % ID
biodistribution testes ([2]; 1 min): 0.25 % ID
biodistribution bladder ([2]; 3 min): 0.62 % ID
biodistribution blood ([2]; 3 min): 12.82 % ID
biodistribution bone ([2]; 3 min): 5.90 % ID
biodistribution caecum ([2]; 3 min): 0.26 % ID
biodistribution colon ([2]; 3 min): 0.53 % ID
biodistribution duodenum ([2]; 3 min): 0.10 % ID
biodistribution heart ([2]; 3 min): 0.27 % ID
biodistribution ileum ([2]; 3 min): 0.20 % ID
biodistribution jejunum ([2]; 3 min): 0.61 % ID
biodistribution kidney ([2]; 3 min): 5.78 % ID
biodistribution liver ([2]; 3 min): 3.02 % ID
biodistribution lungs ([2]; 3 min): 0.89 % ID
biodistribution muscle ([2]; 3 min): 19.47 % ID
biodistribution pancreas ([2]; 3 min): 0.19 % ID
biodistribution salivary gl ([2]; 3 min): 0.28 % ID
biodistribution skin ([2]; 3 min): 21.98 % ID
biodistribution spleen ([2]; 3 min): 0.15 % ID
biodistribution stomach GL ([2]; 3 min): 0.17 % ID
biodistribution stomach SQ ([2]; 3 min): 0.10 % ID
biodistribution testes ([2]; 3 min): 0.25 % ID
biodistribution bladder ([2]; 5 min): 0.47 % ID
biodistribution blood ([2]; 5 min): 8.06 % ID
biodistribution bone ([2]; 5 min): 4.51 % ID
biodistribution caecum ([2]; 5 min): 0.31 % ID
biodistribution colon ([2]; 5 min): 0.37 % ID
biodistribution duodenum ([2]; 5 min): 0.05 % ID
biodistribution heart ([2]; 5 min): 0.19 % ID
biodistribution ileum ([2]; 5 min): 0.18 % ID
biodistribution jejunum ([2]; 5 min): 0.46 % ID
biodistribution kidney ([2]; 5 min): 3.17 % ID
biodistribution liver ([2]; 5 min): 2.04 % ID
biodistribution lungs ([2]; 5 min): 0.76 % ID
biodistribution muscle ([2]; 5 min): 20.11 % ID
biodistribution pancreas ([2]; 5 min): 0.16 % ID
biodistribution salivary gl ([2]; 5 min): 0.16 % ID
biodistribution skin ([2]; 5 min): 18.72 % ID
biodistribution spleen ([2]; 5 min): 0.10 % ID
biodistribution stomach GL ([2]; 5 min): 0.11 % ID
biodistribution stomach SQ ([2]; 5 min): 0.10 % ID
biodistribution testes ([2]; 5 min): 0.32 % ID
biodistribution bladder ([2]; 10 min): 0.10 % ID
biodistribution blood ([2]; 10 min): 2.86 % ID
biodistribution bone ([2]; 10 min): 21.3 % ID
biodistribution caecum ([2]; 10 min): 0.09 % ID
biodistribution colon ([2]; 10 min): 0.11 % ID
biodistribution duodenum ([2]; 10 min): 0.03 % ID
biodistribution heart ([2]; 10 min): 0.07 % ID
biodistribution ileum ([2]; 10 min): 0.08 % ID
biodistribution jejunum ([2]; 10 min): 0.29 % ID
biodistribution kidney ([2]; 10 min): 2.39 % ID
biodistribution liver ([2]; 10 min): 1.22 % ID
biodistribution lungs ([2]; 10 min): 0.22 % ID
biodistribution muscle ([2]; 10 min): 4.58 % ID
biodistribution pancreas ([2]; 10 min): 0.05 % ID
biodistribution salivary gl ([2]; 10 min): 0.06 % ID
biodistribution skin ([2]; 10 min): 10.65 % ID
biodistribution spleen ([2]; 10 min): 0.05 % ID
biodistribution stomach GL ([2]; 10 min): 0.04 % ID
biodistribution stomach SQ ([2]; 10 min): 0.03 % ID
biodistribution testes ([2]; 10 min): 0.08 % ID
biodistribution bladder ([2]; 30 min): 1.04 % ID
biodistribution blood ([2]; 30 min): 1.16 % ID
biodistribution bone ([2]; 30 min): 1.69 % ID
biodistribution caecum ([2]; 30 min): 0.04 % ID
biodistribution colon ([2]; 30 min): 0.05 % ID
biodistribution duodenum ([2]; 30 min): 0.02 % ID
biodistribution heart ([2]; 30 min): 0.04 % ID
biodistribution ileum ([2]; 30 min): 0.07 % ID
biodistribution jejunum ([2]; 30 min): 0.18 % ID
biodistribution kidney ([2]; 30 min): 1.72 % ID
biodistribution liver ([2]; 30 min): 1.33 % ID
biodistribution lungs ([2]; 30 min): 0.16 % ID
biodistribution muscle ([2]; 30 min): 2.65 % ID
biodistribution pancreas ([2]; 30 min): 0.05 % ID
biodistribution salivary gl ([2]; 30 min): 0.04 % ID
biodistribution skin ([2]; 30 min): 5.12 % ID
biodistribution spleen ([2]; 30 min): 0.03 % ID
biodistribution stomach GL ([2]; 30 min): 0.03 % ID
biodistribution stomach SQ ([2]; 30 min): 0.02 % ID
biodistribution tail ([2]; 30 min): 0.86 % ID
biodistribution testes ([2]; 30 min): 0.10 % ID
biodistribution bladder ([2]; 120 min): 0.32 % ID
biodistribution blood ([2]; 120 min): 0.65 % ID
biodistribution bone ([2]; 120 min): 0.80 % ID
biodistribution caecum ([2]; 120 min): 0.03 % ID
biodistribution colon ([2]; 120 min): 0.05 % ID
biodistribution duodenum ([2]; 120 min): 0.01 % ID
biodistribution heart ([2]; 120 min): 0.03 % ID
biodistribution ileum ([2]; 120 min): 0.06 % ID
biodistribution jejunum ([2]; 120 min): 0.09 % ID
biodistribution kidney ([2]; 120 min): 1.60 % ID
biodistribution liver ([2]; 120 min): 0.86 % ID
biodistribution lungs ([2]; 120 min): 0.10 % ID
biodistribution muscle ([2]; 120 min): 1.44 % ID
biodistribution pancreas ([2]; 120 min): 0.01 % ID
biodistribution salivary gl ([2]; 120 min): 0.03 % ID
biodistribution skin ([2]; 120 min): 2.82 % ID
biodistribution spleen ([2]; 120 min): 0.02 % ID
biodistribution stomach GL ([2]; 120 min): 0.02 % ID
biodistribution stomach SQ ([2]; 120 min): 0.01 % ID
biodistribution tail ([2]; 120 min): 0.64 % ID
biodistribution testes ([2]; 120 min): 0.05 % ID
SMILES: Nc1ccc(O)c(NC(=O)CN(CCN(CC(=O)O)CC(=O)Nc2cc(N)ccc2O)CC(=O)O)c1 [Compound 5]
